The source of these data is PMC11995724, “Antibiotic target discovery by integrated phenotypic and activity-based profiling of electrophilic fragments” (Cell chemical biology, 2025).

Screen size: about 3,200 compounds; about 75 (2%) showed an effect of 50% or more. This is one part of the list.

This test deals with T1, S. aureus MSSA476.
T1 construct: MSSA476
On the set-up: species or system S. aureus MSSA476 (TSB) or V. cholerae SAD30 (LB); 384-well bacterial growth screen at 25 uM, OD600 relative to DMSO control. Particulars: relative growth, OD600, TSB; 25 µM; inhibitor.
Turning to `CCC(C)C1CN(Cc2ccc(C)nc2)CCN1C(=O)C(C)Cl` (stereo not drawn) [7-O16, 1-[2-(butan-2-yl)-4-[(6-methylpyridin-3-yl)methyl]piperazin-1-yl]-2-chloropropan-1-one], the “% of control remaining” value was 92.9356%.

As for `COC1(OC)CCOCC1NC(=O)CCl` (stereo not drawn) [7-D10, 2-chloro-N-(4,4-dimethoxyoxan-3-yl)acetamide], the “% of control remaining” value worked out at 88.854%.

`COc1ccc(CN(C)C(=O)CCl)cc1F` [4-F03, 2-chloro-N-[(3-fluoro-4-methoxyphenyl)methyl]-N-methylacetamide]: the “% of control remaining” value was 99.0948%.

As to `C=CC(=O)N1CCCn2cccc2C12CCOCC2` [1-A22, 1-{2',3',4',5'-tetrahydrospiro[oxane-4,1'-pyrrolo[1,2-a][1,4]diazepin]-2'-yl}prop-2-en-1-one], the “% of control remaining” value turned out to be 119.912%.

On to `C=CC(=O)Nc1cccc(NS(=O)(=O)C2CC2)c1` [3-D16, N-(3-cyclopropanesulfonamidophenyl)prop-2-enamide], for which the “% of control remaining” value is reported as 105.529%.

For the compound `CC(Cl)C(=O)NC1CCCCC1n1cccn1` (stereo not drawn) [7-F17, 2-chloro-N-[2-(1H-pyrazol-1-yl)cyclohexyl]propanamide], the “% of control remaining” value is on record as 96.7033%.

Take `CC(Cl)C(=O)N1C2CCC1CC(c1ccnn1C)C2` (stereo not drawn) [7-O15, 2-chloro-1-[3-(1-methyl-1H-pyrazol-5-yl)-8-azabicyclo[3.2.1]octan-8-yl]propan-1-one]: the “% of control remaining” value came out at 104.239%.

For the compound `CSc1cccc(NC(=O)CCl)c1` [4-H10, 2-chloro-N-[3-(methylsulfanyl)phenyl]acetamide], the “% of control remaining” value was 113.959%.

As for `C=CC(=O)N1CCC(c2nc(C(=O)O)co2)CC1` [2-K03, 2-[1-(prop-2-enoyl)piperidin-4-yl]-1,3-oxazole-4-carboxylic acid], the “% of control remaining” value is given as 134.726%.

Regarding `O=C1CCCc2cc(C(=O)CCl)ccc2N1` [10-M20, 7-(2-chloroacetyl)-2,3,4,5-tetrahydro-1H-1-benzazepin-2-one], the “% of control remaining” value stood at 137.5%.

As for `COc1ccc(NC(=O)CCl)c([N+](=O)[O-])c1` [4-I21, 2-chloro-N-(4-methoxy-2-nitrophenyl)acetamide], the “% of control remaining” value is on record as 105.193%.

As for `N#CC(=Cc1cccc(F)c1)C(=O)Nc1cc(Cl)ccc1Cl` [9-P03, 2-cyano-N-(2,5-dichlorophenyl)-3-(3-fluorophenyl)prop-2-enamide], the “% of control remaining” value was 107.865%.

For the compound `N#Cc1c(NC(=O)CCl)oc(-c2ccco2)c1-c1ccco1` [5-D10, 2-chloro-N-[4'-cyano-2'-(furan-2-yl)-[2,3'-bifuran]-5'-yl]acetamide], the “% of control remaining” value is recorded as 66.6667%.

For `CC(Cl)C(=O)Nc1cccc(C#N)c1` (stereo not drawn) [5-B10, 2-chloro-N-(3-cyanophenyl)propanamide], the “% of control remaining” value worked out at 87.0674%.

Take `O=C(CCl)Nc1ccc2oc3ccccc3c2c1` [6-N06, 2-chloro-N-{8-oxatricyclo[7.4.0.0,2,7]trideca-1(9),2(7),3,5,10,12-hexaen-4-yl}acetamide]: the “% of control remaining” value is listed as 127.024%.

For `CC(Cl)C(=O)Nc1ccc(C2CC(=O)NC(=O)N2)cc1` (stereo not drawn) [5-D19, 2-chloro-N-[4-(2,6-dioxo-1,3-diazinan-4-yl)phenyl]propanamide], the “% of control remaining” value is given as 126.412%.

In the case of `C=CC(=O)N1CCC(c2ccc(OC)cc2)C1` (stereo not drawn) [1-N16, 1-[3-(4-methoxyphenyl)pyrrolidin-1-yl]prop-2-en-1-one], the “% of control remaining” value is on record as 116.044%.

Regarding `Cn1ncc2ccc(CNC(=O)N3CCSSCC3)cc21` [10-A20, N-[(1-methyl-1H-indazol-6-yl)methyl]-1,2,5-dithiazepane-5-carboxamide], the “% of control remaining” value turned out to be 123.125%.

Take `C=CC(=O)NC(c1nc(C)cs1)C1CC1` (stereo not drawn) [3-D21, N-[cyclopropyl(4-methyl-1,3-thiazol-2-yl)methyl]prop-2-enamide]: the “% of control remaining” value was determined as 129.56%.

As for `Cc1ccc(CNC(=O)c2ccccc2NC(=O)CCl)cc1` [4-H21, 2-(2-chloroacetamido)-N-[(4-methylphenyl)methyl]benzamide], the “% of control remaining” value was found to be 87.6608%.

`CNC(=O)Cn1ccc2ccc(NC(=O)C(C#N)=Cc3ccco3)cc21` [9-F18, 2-cyano-3-(furan-2-yl)-N-{1-[(methylcarbamoyl)methyl]-1H-indol-6-yl}prop-2-enamide]: the “% of control remaining” value is recorded as 95.5805%.

For the compound `CC(=O)Nc1ccc(C=C(C#N)C(=O)NC2CCCCC2)cc1` [8-N16, 2-cyano-N-cyclohexyl-3-(4-acetamidophenyl)prop-2-enamide], the “% of control remaining” value worked out at 93.61%.

As for `N#CC(=Cc1ccc(SC(F)(F)F)cc1)C(=O)NC1CC1` [9-C14, 2-cyano-N-cyclopropyl-3-{4-[(trifluoromethyl)sulfanyl]phenyl}prop-2-enamide], the “% of control remaining” value was found to be 89.2884%.

As to `O=C(CCl)NCCSc1ccc(Cl)cc1` [4-H17, 2-chloro-N-{2-[(4-chlorophenyl)sulfanyl]ethyl}acetamide], the “% of control remaining” value was determined as 87.2797%.

For the compound `O=C(CCl)N1CCSc2c([nH]c3ccccc23)C1` [6-F08, 2-chloro-1-{2H,3H,4H,5H,6H-[1,4]thiazepino[6,7-b]indol-4-yl}ethan-1-one], the “% of control remaining” value is reported as 89.8049%.

`C=CC(=O)N(C)Cc1cc2sccc2n1C` [2-B19, N-methyl-N-({4-methyl-4H-thieno[3,2-b]pyrrol-5-yl}methyl)prop-2-enamide]: the “% of control remaining” value was 115.579%.

Turning to `CC(Cl)C(=O)N1CCCC1c1nc(-c2ccccc2)c(C(C)C)o1` (stereo not drawn) [7-H11, 2-chloro-1-{2-[4-phenyl-5-(propan-2-yl)-1,3-oxazol-2-yl]pyrrolidin-1-yl}propan-1-one], the “% of control remaining” value came out at 101.413%.

Take `O=C(CCl)Nc1ccc(Oc2ccccc2)cc1` [4-J09, 2-chloro-N-(4-phenoxyphenyl)acetamide]: the “% of control remaining” value is listed as 73.5588%.

With `O=C(CCl)N(Cc1ccc(Cl)cc1)C12CC3CC(CC(C3)C1)C2` [4-H07, N-(adamantan-1-yl)-2-chloro-N-[(4-chlorophenyl)methyl]acetamide], the “% of control remaining” value is 93.7589%.

`COC(=O)C(C(=O)CCl)=C1Nc2ccccc2N1` [10-G12, methyl 4-chloro-2-(2,3-dihydro-1H-1,3-benzodiazol-2-ylidene)-3-oxobutanoate]: the “% of control remaining” value was determined as 93.125%.

With `C=CC(=O)N(Cc1noc2c1CCCC2)CC1CCCC1` [1-H13, N-(cyclopentylmethyl)-N-[(4,5,6,7-tetrahydro-1,2-benzoxazol-3-yl)methyl]prop-2-enamide], the “% of control remaining” value is 137.846%.

Take `CC(=O)NCCc1ccc(C(=O)C(C)Cl)cc1` (stereo not drawn) [10-B03, N-{2-[4-(2-chloropropanoyl)phenyl]ethyl}acetamide]: the “% of control remaining” value is listed as 121.25%.

For `C=CC(=O)N1CCC(C(=O)N2CCCC(NC(=O)C(C)(C)C)C2)CC1` (stereo not drawn) [2-F05, 2,2-dimethyl-N-{1-[1-(prop-2-enoyl)piperidine-4-carbonyl]piperidin-3-yl}propanamide], the “% of control remaining” value amounted to 112.097%.

For `C=CC(=O)N(c1cc(C)ccc1C#N)C(C)C` [2-A22, N-(2-cyano-5-methylphenyl)-N-(propan-2-yl)prop-2-enamide], the “% of control remaining” value stood at 144.125%.

As to `Cc1ncsc1C=C(C#N)C(=O)Nc1ccc(C(=O)N(C)C)cc1` [9-J16, 4-[2-cyano-3-(4-methyl-1,3-thiazol-5-yl)prop-2-enamido]-N,N-dimethylbenzamide], the “% of control remaining” value was 104.27%.

As for `N#CC(=Cc1c(Cl)cccc1Cl)C(=O)Nc1nccs1` [8-P09, 2-cyano-3-(2,6-dichlorophenyl)-N-(1,3-thiazol-2-yl)prop-2-enamide], the “% of control remaining” value amounted to 146.722%.

`CC(Cl)C(=O)NCc1nc(N(C)C)no1` (stereo not drawn) [7-A04, 2-chloro-N-{[3-(dimethylamino)-1,2,4-oxadiazol-5-yl]methyl}propanamide]: the “% of control remaining” value is recorded as 109.576%.

On to `Cc1cccc(-n2c(C)cc(C(=O)CCl)c2C)c1` [10-A22, 2-chloro-1-[2,5-dimethyl-1-(3-methylphenyl)-1H-pyrrol-3-yl]ethan-1-one], for which the “% of control remaining” value was determined as 138.438%.

Turning to `O=C(CCl)N1N=C(c2ccccc2)CC1c1ccccc1` (stereo not drawn) [4-I20, 2-chloro-1-(3,5-diphenyl-4,5-dihydro-1H-pyrazol-1-yl)ethan-1-one], the “% of control remaining” value came out at 107.48%.

Take `CC(=O)N1c2ccc(C(=O)CCl)cc2CC1C` (stereo not drawn) [10-I20, 1-(1-acetyl-2-methyl-2,3-dihydro-1H-indol-5-yl)-2-chloroethan-1-one]: the “% of control remaining” value came out at 66.25%.

With `O=C(CCl)NCC(F)(F)c1cc(-c2ccccc2)n[nH]1` [7-P20, 2-chloro-N-[2,2-difluoro-2-(3-phenyl-1H-pyrazol-5-yl)ethyl]acetamide], the “% of control remaining” value stood at 128.414%.

Turning to `O=C(CCl)NC(c1ccc(F)cc1)C1CCCC1` (stereo not drawn) [6-K08, 2-chloro-N-[cyclopentyl(4-fluorophenyl)methyl]acetamide], the “% of control remaining” value came out at 107.561%.

With `C=CC(=O)N1CCN(CC(=O)NC)CC1` [1-F03, N-methyl-2-[4-(prop-2-enoyl)piperazin-1-yl]acetamide], the “% of control remaining” value came out at 96.7033%.

Turning to `CC1(C)CN(C(=O)CCl)CCO1` [6-C05, 2-chloro-1-(2,2-dimethylmorpholin-4-yl)ethan-1-one], the “% of control remaining” value came out at 84.3415%.

For `N#CC(C(=O)CCl)=C1NC(C23CC4CC(CC(C4)C2)C3)=CS1` [10-F14, 2-[4-(adamantan-1-yl)-2,3-dihydro-1,3-thiazol-2-ylidene]-4-chloro-3-oxobutanenitrile], the “% of control remaining” value is given as 42.1875%.
